Results reported in publication PMC12136788.
The list shows a part of the results.

T1: UNK ZnF1-3 (human, UniProt Q9C0B0 31-174)
T1 sequence: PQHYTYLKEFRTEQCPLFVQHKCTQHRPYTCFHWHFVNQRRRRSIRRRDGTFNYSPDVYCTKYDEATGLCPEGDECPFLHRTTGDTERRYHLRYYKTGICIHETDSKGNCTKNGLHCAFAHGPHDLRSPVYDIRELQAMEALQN

B1: chr17:61683753:61683754:+_ENSG00000136463_ENST00000258975|hu_hu|FALSE|FALSE (ssRNA)
RNA: GGGAGUUCUACAGUCCGACGAUCAAAAGAGUGACGAGCUCCUACAGCCAUCACUCCUCCAUUCUUAUUCAGGAUAUGUCUAAUGUCUGCUUGGCACUUGUGGCUACUGUUAGAUAAUGCCUCGAUGAGCAGAGAAGAGCCACCCAACAGAGGAUUGAGCAUCA
B2: chr4:95690885:95690886:+_ENSMUSG00000028572_ENSMUST00000156910|mus_mus|mus_mus_mus_hu_False|28_58 (ssRNA)
RNA: GGGAGUUCUACAGUCCGACGAUCUUUAGAAAAUGUUAAAUACCAUGCUAAAAUAUUUUCAAAGGCUUAUUUUAUUUUACUAAAAGACACAGGCAAGCAGACACUACAAACAUACAAGAAAAUGAAACUCAACAAUAUAACUGUCAACAGAGGAUUGAGCAUCA
B3: 7345498_7345716_1240_CDS_ENSMUSG00000024968_ENSMUST00000066646|mouse|control|control (ssRNA)
RNA: GGGAGUUCUACAGUCCGACGAUCACUCACAGCUCCUCGUCCCUCUUCUAGUUCAUCACUGUCUUCUUUGUCCUUGCGGCCACCCAGCCGCCUGGCCUGCCUGUCCAUCACACUAGUUCGACUUCGGGUCUUCUUCCAAGAGUACAACAGAGGAUUGAGCAUCA
B4: chr4:48472932:48472933:-_ENSMUSG00000028345_ENSMUST00000030030|mus_mus|FALSE|FALSE (ssRNA)
RNA: GGGAGUUCUACAGUCCGACGAUCGGUUGAAGCAUUUGCCAGCGAGACCAUGAUAUCAGACAGUGUUAAGUUCAGUAAAAGAUGAUCUACAUUAUUGGAGAGAACUGUGCAAUGCUUGAUGCUUUUAUUUGUAUCUUUCUUCCGCAACAGAGGAUUGAGCAUCA
B5: chr4:57314706:57314707:+_ENSG00000128050_ENST00000264221|hu_mus|hu_hu_hu_mus_True|1_108 (ssRNA)
RNA: GGGAGUUCUACAGUCCGACGAUCCAGUAUUUCAAAUAUAGCUUGUGUGGCAUGACUCAUGAUGUCCACUUCAGUCUGCCCUAUAACAAGGCCAGCAAAACAGAAUUUUGCAGCAAUGAGUUGCUCCUCAGACCACUGUGGGUCCAACAGAGGAUUGAGCAUCA
B6: chr16:13130331:13130332:+_ENSMUSG00000022545_ENSMUST00000023206|mus_mus|FALSE|FALSE (ssRNA)
RNA: GGGAGUUCUACAGUCCGACGAUCCUUUCUAACAUUUACCCACACUUCUUCAGCUUUGCCAUCCUUCUCAAAAGUUUUCCUAUAAAGUCGCAGCAGGAAGGUUUCUGCUCCGGCGGACAGGUAGUCUCUCAGCUGGCAGCACGUCAACAGAGGAUUGAGCAUCA
B7: chr12:16048344:16048345:+_ENSG00000023734_ENST00000419869|hu_hu|hu_hu_hu_mus_True|58_98 (ssRNA)
RNA: GGGAGUUCUACAGUCCGACGAUCAGAUCGUCCAUAAGUUAUAACCAAAAUCUCUCCUUCAGGAAUAUACUCCAUGCUACUAACAGACAUAUUAAAAUUCAGAGAUUUCACUUCUGUCAUUGUGGCAUGAUCCCAGAGCCGAACCAACAGAGGAUUGAGCAUCA
B8: chr19:36933551:36933552:+_ENSMUSG00000024811_ENSMUST00000025729|mus_hu|motif|central (ssRNA)
RNA: GGGAGUUCUACAGUCCGACGAUCGUGGCCUUUAAAUUCAUAUGCUAAUCUUUCUUUUAACUGUGGUGUGGGAGCCAAGUCGGUAGCACUUUUAUUGUGACAAUUGAGCAGUGUUGGGUCUGCACCAUAACUUAAGAGAAGAGACAACAGAGGAUUGAGCAUCA
B9: 205589400_205589520_1053_3pUTR_ENSG00000158711_ENST00000357992|human|control|control (ssRNA)
RNA: GGGAGUUCUACAGUCCGACGAUCAUGGACGAAAUGGGUGGUGUGGUGGCAAAAGCAGUCAUUACGUUAGAGGCAGAGGUUGGGGCUUCCAGGGAAGGCAGUUUUGGGGAAACCAAUGUCUCCAAAGCUUGGAUAGUUUCUUCUCAACAGAGGAUUGAGCAUCA
B10: 60818152_60819469_732_3pUTR_ENSMUSG00000021559_ENSMUST00000077453|mouse|control|control (ssRNA)
RNA: GGGAGUUCUACAGUCCGACGAUCUCAUUUCCAAAGUCAAUUUUAUGGGCCAAGCCAAAGUCUAUGAUCUUGAUCCGAGGUUUGGGCACAUUUCUAUCCAGAAGCAUUAUGUUUUCCGGCUUCAGGUCAAAGUGAGCGAUCUGCCAACAGAGGAUUGAGCAUCA
B11: chr1:60041781:60041782:+_ENSMUSG00000041040_ENSMUST00000036540|mus_hu|mus_mus_mus_hu_False|1_8 (ssRNA)
RNA: GGGAGUUCUACAGUCCGACGAUCAAGUUUACAAUAGUAAAGUAAAUGCAGUAGUGGCAAAUUUUCUUUUAUUUUCCUUCACAAAAGAAAAUCUUUAUAACCCAGUCCUAGUCUUGGACAUAGUGAAUCUCCAUGGGGCCACUGCAACAGAGGAUUGAGCAUCA
B12: chr17:25041749:25041750:-_ENSMUSG00000024163_ENSMUST00000117509|mus_mus|motif|central (ssRNA)
RNA: GGGAGUUCUACAGUCCGACGAUCAGAUGGGUAGGAUCGUUUGGCCGGAGGGGGGCUAGAUGAGGAGCUGAAGAGGCGACGGAAGAACUGCCAGAUGGUGGACUUCUUCUUCUCCUGGACAGAUGGGUGUUCCCUUGAUGCUCUCAACAGAGGAUUGAGCAUCA
B13: 15138320_15138440_3267_CDS_ENSMUSG00000046111_ENSMUST00000161132|mouse|control|control (ssRNA)
RNA: GGGAGUUCUACAGUCCGACGAUCAUAUAAAAGUAAUGUCUCUUGACCAUCACGUCUAGGCGGAAUCAUACUCCUCUGUCUAGUCAGCUGCUCUUGAAGCAACUUUAAAGUGUUCUGGAGAGGUAGGGUCUGCUGUAGAAAACCCAACAGAGGAUUGAGCAUCA
B14: chr7:36427155:36427156:-_ENSMUSG00000030417_ENSMUST00000118501|mus_mus|FALSE|FALSE (ssRNA)
RNA: GGGAGUUCUACAGUCCGACGAUCCAAAGUAAACAUUUACAAGGUGGUGACUGUCCUAGACACUGCUCCGGAAGUCUGUCUAAGUGCGUCCUCUUAGUAAUCGGCGUCGUCUUCAUCGGAGUCCAUUACUUUUCUUCUGUUGAACAACAGAGGAUUGAGCAUCA
B15: chr22:32879901:32879902:+_ENSG00000100225_ENST00000397426|hu_mus|hu_hu_hu_mus_False|58_98 (ssRNA)
RNA: GGGAGUUCUACAGUCCGACGAUCCUCUUCCAUACUCGCAUUAUCUUGAAUUGACUCAGCUUCAACAUUUUGACUAGGCCCUAACAUACUGUCAUCAGUCCAGGCAUCAAAUGGGGUGGCCUGUCCUUGGGAUGAAUCAGUCCCCAACAGAGGAUUGAGCAUCA
B16: chr12:86613709:86613710:-_ENSMUSG00000008822_ENSMUST00000008966|mus_mus|FALSE|FALSE (ssRNA)
RNA: GGGAGUUCUACAGUCCGACGAUCCUGCAGUUGCCCUUGCACGGUGCCCCGGUCGGUGUUCUGAACCCAGCCCACCAAACCUAGCUUUUUACCCUCAGCCUGAGUGUACUUGCGGAAAAACACCCCUUGAACCUUUCCAAAAAUCAACAGAGGAUUGAGCAUCA
B17: chr2:202488911:202488912:-_ENSG00000155755_ENST00000286196|hu_mus|hu_hu_hu_mus_False|78_78 (ssRNA)
RNA: GGGAGUUCUACAGUCCGACGAUCAUUGAAACAUUUUUCAUAAUCUCCAGUAGCAUUCAGUAUUAUAGUAACAAAAGCUCAAUUGUAAAUACAUGUAUCUUAUAAAAAUACACUUAAAAACACGAGUGGGGAGCGCAGGCGCCACAACAGAGGAUUGAGCAUCA
B18: chr22:38894135:38894136:-_ENSG00000100201_ENST00000396821|hu_mus|FALSE|FALSE (ssRNA)
RNA: GGGAGUUCUACAGUCCGACGAUCAUAAUCGUCAGCCACCUGCUGCACCUGCUGCGCAAGCUCUCUGGUAGGAGCCAGCACUAGACAAAUUGGACCAUCUCCUCUUUCCAAGUAUGGCUGGUGGUUUAUAUGAACAAUCGCAGGCAACAGAGGAUUGAGCAUCA
B19: 10697589_10697709_468_CDS_ENSG00000111845_ENST00000379568|human|control|control (ssRNA)
RNA: GGGAGUUCUACAGUCCGACGAUCCACUAGAGCCCCAUGCUCAAUCUUCUUUUUCAUGUCAUAAAUGUGAAUUGUUUCAUCUUUGCUCCCAGUGACCACAAAACGACUAUUUACAGCUACUGCUGACAAGGAGGCAGUGUGAGCCAACAGAGGAUUGAGCAUCA
B20: chr7:56126341:56126342:+_ENSG00000146731_ENST00000540286|hu_mus|hu_hu_hu_mus_True|38_78 (ssRNA)
RNA: GGGAGUUCUACAGUCCGACGAUCCAUGUUUCUCCUCUUGGCUCUGCGCAGAGCUACUAUGCCUUCUUUCGCAAGGGCAUCUAAGGAAAAGGGGUCAAUUCCCUUUUGAUUAAUAACGACAAAUCCUUUAUCUGAGUCACCACACAACAGAGGAUUGAGCAUCA
B21: chrX:98862621:98862622:+_ENSMUSG00000034160_ENSMUST00000044475|mus_hu|mus_mus_mus_hu_False|28_38 (ssRNA)
RNA: GGGAGUUCUACAGUCCGACGAUCCUGCAUCUCCUUUAGAGUGUUUCCCAUAUUAGAGUAGGCAUCAGCAAAGGUAGGACUGAUUCGAAUAGCCUCCUUAUAGUGCAUCAGUGCUUCCUGCAGUUUUCCCUGCUGCUGCAGUACCAACAGAGGAUUGAGCAUCA
B22: chr11:87793471:87793472:-_ENSMUSG00000020483_ENSMUST00000020775|mus_mus|mus_mus_mus_hu_False|78_98 (ssRNA)
RNA: GGGAGUUCUACAGUCCGACGAUCUGGACUUGAAAAUAAAAAAAAUAGCUGGAUCCCCCCACCCCUUACAUUGUCAACCCUACACGAGAGUUUUGAAGGCGACUCAUGAAAAUCAGCAGCUCAAACGGCAAUGACCACCCCACCCAACAGAGGAUUGAGCAUCA

These binders were tested against T1, UNK ZnF1-3 (assay: nsRBNS (natural sequence RNA bind-n-seq); RBNS binding buffer (assumed for nsRBNS): 25 mM Tris pH 7.5, 150 mM KCl, 3 mM MgCl2, 0.01% Triton X-100, 500 ug/ml BSA, 20 U/ml SUPERase-In, 4 C; UNK is unkempt and MSI1 is Musashi-1; names of the RNAs are library labels; protein concentration not given here; high values mean tight binding).
B1 was tested, and the binding signal was 0.839 enrichment R.
With B2 the binding signal was 2.22 enrichment R.
Work on B3 yielded a binding signal of 0.733 enrichment R.
In the case of B4, the binding signal is reported as 1.09 enrichment R.
B5 gave a binding signal of 0.772 enrichment R.
Binder B6 has a binding signal of 0.782 enrichment R.
With B7 the binding signal was 0.959 enrichment R.
Binder B8 has a binding signal of 1.74 enrichment R.
In the case of B9, the binding signal is reported as 1.75 enrichment R.
Binder B10 has a binding signal of 0.793 enrichment R.
For B11, the binding signal was 0.832 enrichment R.
B12 was tested, and the binding signal was 1.15 enrichment R.
B13 gave a binding signal of 0.696 enrichment R.
Binder B14 has a binding signal of 0.676 enrichment R.
B15 showed a binding signal of 1.24 enrichment R.
B16 gave a binding signal of 1.08 enrichment R.
In the case of B17, the binding signal is reported as 0.984 enrichment R.
In the case of B18, the binding signal is reported as 0.798 enrichment R.
Work on B19 yielded a binding signal of 1.31 enrichment R.
B20 gave a binding signal of 0.681 enrichment R.
With B21 the binding signal was 0.984 enrichment R.
For B22, the binding signal was 3.02 enrichment R.
